“And” between values parts separate entries of the source, which are not always exact repeats. Identical values can stand only once. Out of some 420,000 compounds screened, about 64,000 (15%) were called active. Inconclusive results, whose numbers are uncertain, are shown with a selection of clear calls. Calls follow the shape of the dose curve; as a rule, active = well fitted inhibition curve with a large enough effect; inconclusive = small, poorly fitted or top-dose-only effect; inactive = flat fitted curve, though single readings scatter. No potency is given beside an inconclusive call; the fits are too rough. The source holds several records for some structures; these can differ, active in one and inactive in another.
Assay: qHTS for Inhibitors of human tyrosyl-DNA phosphodiesterase 1 (TDP1): qHTS in cells in absence of CPT; also: nearly all actives have a fitted effect of over 55% in size
Conditions: DT40 Tdp1-/- hTDP1 cells, no CPT, ATP luminescence, 48 h; activity change, negative = growth inhibition: at 46.2 µM (top of the series) unless noted
Method in brief: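 Luminescent ATP content (CellTiter-Glo) served as the growth readout. Knockout chicken DT40 cells expressing human TDP1 were exposed to compounds without camptothecin for a minimum 48 hr at 37 °C.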
In the case of `CC(C)C[C@H]1CNC(=S)N1CC1CCCN1C[C@H](Cc1ccc(O)cc1)N1C[C@H](Cc2ccccc2)N(CC2CCCCC2)C1=S` (stereo partly specified), the Potency is reported as active: 5.8 µM. In the case of `O=C(Cc1ccccc1)N1CCCC(c2nc(-c3ccc(S(=O)(=O)N4CCCC4)cc3)no2)C1` (stereo unspecified), the Potency is reported as inconclusive [inhibitor, single point]. For `Cc1ccc(S(=O)(=O)N(C)c2ccc3c(c2)C(=O)c2ccccc2-3)cc1`, the Potency was inconclusive [inhibitor, single point]. For `Cc1ccc2ncc(C)c(/C=C/c3ccc(N(C)C)cc3)c2c1`, the Potency was inconclusive [inhibitor, single point]. In the case of `Cc1ccc(S(=O)(=O)N2CCC(C(=O)Nc3ccccc3N3CCCC3)CC2)cc1C`, the Potency is reported as inconclusive [inhibitor, single point]. For `COc1ccc(CNC(=O)[C@@H](Cc2ccccc2)NC(=O)CC[C@H]2O[C@@H](n3ccc(=O)[nH]c3=O)[C@H](O)[C@@H]2O)cc1`, the “activity change, negative = growth inhibition” value was inactive: 0.606%. In the case of `COc1ccc(C(=O)Nc2ccc(-n3nncc3-c3ccc(OC)c(OC)c3)cc2)cc1`, the Potency is reported as active: 20.6 µM. With `Cc1ccc(S(=O)(=O)N2CCN(C(=O)Cn3c(=O)oc4ccccc43)CC2)c(C)c1` the “activity change, negative = growth inhibition” value was inactive: -1.51%. For `Cc1ccc(S(=O)(=O)N2CCN(C(=O)c3c(-c4ccccc4)noc3C)CC2)c(C)c1`, the Potency was inconclusive [inhibitor, partial curve]. In the case of `O=C1CSC2(C(=O)N3CCCc4cccc2c43)N1c1cccc(C(F)(F)F)c1` (stereo unspecified), the Potency is reported as inconclusive [inhibitor, single point]. In the case of `Cc1cc(C)n2c(Nc3ccc4c(c3)OCCO4)c(-c3ccc(F)cc3)nc2n1`, the Potency is reported as inconclusive [inhibitor, single point]. With `COc1ccccc1NC(=O)c1ccc2c(=O)n3c(nc2c1)CCC3` the Potency was inconclusive [inhibitor, single point]. With `CCCC(=O)N(Cc1cc2cccc(C)c2[nH]c1=O)c1ccccc1OC` the Potency was inconclusive [inhibitor, partial curve]. With `CCN(CC)CC(=O)Nc1c(C)cccc1C` the Potency was “inactive”. With `O=C(COC(=O)c1cnc(Cl)c(Cl)c1)NC1CCCC1` the “activity change, negative = growth inhibition” value was inactive: -22.6%. In the case of `COc1ccc(CNC(=O)CCc2cn(Cc3cc(C)ccc3C)c3ccccc23)cc1OC`, the Potency is reported as active: 5.8 µM. With `O=C(Cc1ccc(Cl)cc1)Nc1ccccc1Sc1ccccc1` the Potency was inconclusive [inhibitor, single point]. With `CCCCCOc1ccc(NC(=O)c2cc(SC)ccc2Cl)cc1` the Potency was active: 13 µM. With `Cn1c(SCC(=O)N2CCCCC2)nc2c(c1=O)SCC2` the “activity change, negative = growth inhibition” value was inactive: 4.08%. In the case of `COc1ccccc1C(=O)Nc1c(-c2ccccc2)nc2ccccn12`, the Potency is reported as inconclusive [inhibitor, single point]. In the case of `O=C(c1cccc2ccccc12)N1CCN(c2ccc([N+](=O)[O-])c(NCc3ccco3)c2)CC1`, the “activity change, negative = growth inhibition” value is reported as inactive: -28.7%. For `COc1ccc(NC(=O)c2cc(C3CCCCN3C(=O)c3ccccc3)on2)c(C)c1` (stereo unspecified), the Potency was active: 9.2 µM. For `COc1cc(C(=O)NCCOC(=O)c2cccc(N(C)C)c2)cc(OC)c1OC`, the “activity change, negative = growth inhibition” value was inactive: -26.7%. In the case of `CC(C)C1C(=O)N(Cc2cn(CCC3OCCO3)nn2)CCS(=O)(=O)N1Cc1ccc(-c2ccncc2)cc1` (stereo unspecified), the “activity change, negative = growth inhibition” value is reported as inactive: -27.7%. For `CCN1C(=O)[C@H]2[C@@H](c3ccc(-c4cccc(Cl)c4)cc3)N3CCCC[C@@]3(C(=O)OC)[C@H]2C1=O`, the Potency was inconclusive [inhibitor, single point]. For `CCOc1cc(/C=C2\SC(N3CCCCC3)=NC2=O)ccc1O`, the Potency was inconclusive [inhibitor, single point]. In the case of `C=CCNC(=O)c1ccc(-c2nc(-c3ccc(Cl)cc3Cl)cs2)cc1`, the Potency is reported as inconclusive [inhibitor, partial curve, poor fit]. In the case of `CCc1cccc(N(C)C(N)=Nc2cccc3ccccc23)c1`, the Potency is reported as “inactive and active: 15 µM”. For `C#Cc1cc(N2CCN(C(=O)c3ccoc3)CC2)n2nc(-c3cccc(Cl)c3)cc2n1`, the Potency was active: 5.8 µM. With `Clc1ccccc1/C=C/c1ccnc2ccccc12` the Potency was inconclusive [inhibitor, single point]. In the case of `CC(C)(C)c1ccc(-c2nc3cc(NC(=O)c4cc5ccccc5o4)ccc3o2)cc1`, the Potency is reported as inconclusive [inhibitor, single point]. For `COc1cccc(CNC(=O)CCC2CCCN(C/C=C/c3ccccc3OC)C2)c1` (stereo unspecified), the Potency was active: 23.1 µM. For `Cc1cc(OCC(=O)N(Cc2ccccc2)C2CCS(=O)(=O)C2)ccc1Cl` (stereo unspecified), the “activity change, negative = growth inhibition” value was inactive: -3.06%. For `CC[C@]12c3[nH]c4ccc(Cl)cc4c3CCN1C(=O)[C@@H](CC(=O)NCc1cccc(C(F)(F)F)c1)C[C@@H]2C(=O)N1CCN(C(=O)C2CC2)CC1`, the Potency was inconclusive [inhibitor, single point]. With `O=C(CNC(=O)Cc1ccccc1)NCC(=O)N1CCN(C(c2ccccc2)c2ccccc2)CC1` the Potency was inconclusive [inhibitor, single point]. With `COc1cc(CCC(=O)N2CCN(S(=O)(=O)c3ccc(C)cc3)CC2)cc(OC)c1OC` the Potency was inconclusive [inhibitor, single point]. With `COc1ccc([C@H]2CC(=O)C[C@@H](CCn3cc(CC4CCCC4)nn3)O2)cc1` the “activity change, negative = growth inhibition” value was inactive: -23.7%. In the case of `Cc1oc(-c2cc(F)ccc2F)nc1CN1CCCN(C(=O)c2ccco2)CC1`, the Potency is reported as inconclusive [inhibitor, single point]. With `COc1ccc(-c2nn(-c3ccccc3)cc2C(=O)N2CCN(S(=O)(=O)c3ccccc3[N+](=O)[O-])CC2)cc1` the Potency was inconclusive [inhibitor, partial curve]. For `CCOc1ccccc1C(=O)N1CCN(c2cccc(Cl)c2)CC1`, the Potency was active: 0.164 µM. In the case of `O=C(COc1ccc2ccc(=O)oc2c1)N1CCN(c2ccc(F)cc2)CC1`, the Potency is reported as active: 23.1 µM. In the case of `COc1ccc(-c2nc3c4ccccc4ccn3c2CN2CCCCC2)cc1OC`, the Potency is reported as inconclusive [inhibitor, single point]. With `O=C1/C(=C\c2ccc(O)cc2)CCC1CNc1ccc(Cl)cc1` (stereo unspecified) the Potency was active: 3.26 µM. With `Cc1cccc(C)c1NC(=O)C1C(c2ccc3c(c2)OCO3)=Nc2ccccc2N1C(=O)c1ccccc1` (stereo unspecified) the Potency was active: 1.46 µM. With `Clc1nccnc1N/N=C/c1ccc(Br)cc1` the “activity change, negative = growth inhibition” value was inactive: -25.2%. In the case of `CC(C)Oc1cccc(C(=O)C2CCCN(C(=O)CCc3cnn(C)c3)C2)c1` (stereo unspecified), the Potency is reported as inconclusive [inhibitor, single point]. With `C=CCn1c(SCC(=O)NCC)nnc1-c1cc2c(s1)CCC(CC)C2` (stereo unspecified) the Potency was active: 16.4 µM. For `C#CCOCCOCCOCCNc1nc(N2CCN(C(=O)CCCCCCCCCCNC(=O)[C@@H]([C@H](C)O)n3cc(C)nn3)CC2)nc(N2CCN(C(=O)CCCCCCCCCCNC(=O)[C@@H]([C@H](C)O)n3cc(C)nn3)CC2)n1`, the Potency was active: 23.1 µM. With `CC/C(=N\NC(=S)Nc1ccc(OC)cc1)c1ccc(OC(F)F)cc1` the Potency was active: 5.8 µM. With `COc1ccc(NC(=O)c2cc(-c3ccccc3)nc3c2cnn3C(C)C)cc1` the Potency was inconclusive [inhibitor, single point]. In the case of `O=C(CN1C2=NCCN2c2ccccc21)N1CCOCC1`, the “activity change, negative = growth inhibition” value is reported as inactive: 0.287%. For `O=C(CSC1=Nc2ccccc2C2CC=NN12)Nc1ccc(F)c(F)c1F` (stereo unspecified), the “activity change, negative = growth inhibition” value was inactive: 5.38%. For `COCCN(CC(=O)NCc1ccccc1)C(=O)CCC(=O)Nc1ccccn1`, the “activity change, negative = growth inhibition” value was inactive: -12.5%. With `Cc1ccc(OCC(=O)NC(=S)Nc2ccc(Br)c(C)n2)cc1` the “activity change, negative = growth inhibition” value was inactive: -7.5%. For `COc1ccc(S(=O)(=O)N2CCCC(C(=O)NCc3ccco3)C2)cc1OC` (stereo unspecified), the “activity change, negative = growth inhibition” value was inactive: -26.9%. In the case of `CC(C)c1ccc(NC(=O)C2CCN(S(=O)(=O)c3cccc4nsnc34)CC2)cc1`, the Potency is reported as inconclusive [inhibitor, partial curve]. For `Cn1c(N)c(C(=O)COC(=O)CSc2ccc(Cl)cc2)c(=O)n(C)c1=O`, the “activity change, negative = growth inhibition” value was inactive: -1.15%. For `CCOC(=O)c1c(C)[nH]c(C)c1C(=O)Cn1nnc(-c2ccccc2C)n1`, the Potency was inconclusive [inhibitor, single point]. In the case of `NC(=O)c1ccsc1NC(=O)COC(=O)c1ccc(Cl)c(N)c1`, the Potency is reported as inconclusive [inhibitor, single point]. With `COc1cccc(-c2cnc3c(NC(C)=O)cc(-c4cc(F)ccc4OC)cn23)c1` the Potency was active: 23.1 µM. With `COc1ccc(-c2cccc(C3CC=CC4C3C(=O)N(Cc3ccccc3)C4c3ccc4ccccc4c3)c2)cc1` (stereo unspecified) the Potency was active: 14.6 µM. In the case of `CN(CC(=O)N1CCN(c2ccccn2)CC1)S(=O)(=O)c1ccc(Cl)cc1`, the Potency is reported as inconclusive [inhibitor, partial curve]. In the case of `COc1ccc(-c2ccc3c(=O)cc(-c4ccsc4)oc3c2)cn1`, the Potency is reported as inconclusive [inhibitor, single point]. With `COc1ccccc1CN(C)CC(=O)c1c(C)[nH]c2ccccc12` the Potency was active: 17.8 µM. In the case of `C[C@H]1CN=C(N(C)C)N1CCc1ccccc1`, the “activity change, negative = growth inhibition” value is reported as inactive: -3.97%. With `Cn1c(SCC(=O)NCc2ccc3c(c2)OCO3)nnc1-c1c[nH]c2ccccc12` the “activity change, negative = growth inhibition” value was inactive: -13.6%. For `CC(=O)N1CCC2(CCCN(c3ccccc3)C2)CC1`, the “activity change, negative = growth inhibition” value was inactive: -14.1%. In the case of `O=C(CN1CCOCC1)Nc1ccc([N+](=O)[O-])cc1Br`, the Potency is reported as inconclusive [inhibitor, partial curve]. For `NC(=O)c1ccc(NC(=O)CSC2=Nc3ccccc3C3CC=NN23)cc1` (stereo unspecified), the Potency was active: 20.6 µM. With `CC(C)(Oc1ccc(Cl)cc1)C(=O)N/N=C/c1cn[nH]c1-c1ccccc1` the “activity change, negative = growth inhibition” value was inactive: -12%. With `CN(CC(=O)Nc1cccc(Cl)c1)S(=O)(=O)c1ccc2[nH]c3c(c2c1)CCCC3` the Potency was active: 23.1 µM.

From PubChem BioAssay AID686978 (National Center for Advancing Translational Sciences (NCATS), 2013)
% is scaled to controls: 0 for no effect and ±100 for the full control effect; potency is read from the fitted curve at half-maximal effect; tags tell the direction and shape of the fitted curve.
